{"source": "the supplement of paper PMC8728848", "experiment_in_all_cases": "glycan array binding signal (z-score within array); higher = stronger binding", "conditions_in_all_cases": "glycan notation: IUPAC condensed, linker removed", "key": {"Neu5Ac(a2-8)Neu5Ac": {"target": "Neu5Ac(a2-8)Neu5Ac", "how_it_was_run": "(§1)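 Columns mapping to the same glycan were averaged after glycan names were converted to IUPAC-condensed notation. The data come from 3228 arrays in the Consortium for Functional Glycomics database, limited to those with an available protein sequence. Binding is reported as a within-array Z-score averaged across arrays of one protein sequence and across linkers.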"}, "[1]": {"target": "Neu5Ac(a2-8)Neu5Ac(a2-3)Gal(b1-3)GalNAc(b1-4)[Neu5Ac(a2-3)]Gal(b1-4)Glc", "how_it_was_run": "as §1"}, "[2]": {"target": "Neu5Ac(a2-8)Neu5Ac(a2-3)Gal(b1-3)GalNAc(b1-4)[Neu5Ac(a2-8)Neu5Ac(a2-3)]Gal(b1-4)Glc", "how_it_was_run": "as §1"}, "[3]": {"target": "Neu5Ac(a2-8)Neu5Ac(a2-3)Gal(b1-4)Glc", "how_it_was_run": "as §1"}, "[4]": {"target": "Neu5Ac(a2-8)Neu5Ac(a2-3)Gal(b1-4)GlcNAc", "how_it_was_run": "as §1"}, "[5]": {"target": "Neu5Ac(a2-8)Neu5Ac(a2-3)[Gal(b1-3)GalNAc(b1-4)]Gal(b1-4)Glc", "how_it_was_run": "as §1"}, "[6]": {"target": "Neu5Ac(a2-8)Neu5Ac(a2-3)[GalNAc(b1-4)]Gal(b1-4)Glc", "how_it_was_run": "as §1"}, "[7]": {"target": "Neu5Ac(a2-8)Neu5Ac(a2-8)Neu5Ac", "how_it_was_run": "as §1"}, "[8]": {"target": "Neu5Ac(a2-8)Neu5Ac(a2-8)Neu5Ac(a2-3)Gal(b1-4)Glc", "how_it_was_run": "as §1"}, "[9]": {"target": "Neu5Ac(a2-8)Neu5Ac(a2-8)Neu5Ac(a2-3)[Gal(b1-3)GalNAc(b1-4)]Gal(b1-4)Glc", "how_it_was_run": "as §1"}, "[10]": {"target": "Neu5Ac(a2-8)Neu5Ac(a2-8)Neu5Ac(a2-3)[GalNAc(b1-4)]Gal(b1-4)Glc", "how_it_was_run": "as §1"}, "[11]": {"target": "Neu5Ac(a2-8)Neu5Ac(a2-8)Neu5Ac(a2-8)Neu5Ac(a2-3)[GalNAc(b1-4)]Gal(b1-4)Glc", "how_it_was_run": "as §1"}, "[12]": {"target": "Neu5Ac(a2-8)Neu5Gc(a2-3)Gal(b1-4)GlcNAc", "how_it_was_run": "as §1"}, "[13]": {"target": "Neu5Ac(b2-6)Gal(b1-4)GlcNAc", "how_it_was_run": "as §1"}, "Neu5Ac(b2-6)GalNAc": {"target": "Neu5Ac(b2-6)GalNAc", "how_it_was_run": "as §1"}, "[14]": {"target": "Neu5Ac9Ac(a2-3)Gal(b1-3)GlcNAc", "how_it_was_run": "as §1"}, "[15]": {"target": "Neu5Ac9Ac(a2-3)Gal(b1-4)GlcNAc", "how_it_was_run": "as §1"}, "[16]": {"target": "Neu5Ac9Ac(a2-6)Gal(b1-4)GlcNAc", "how_it_was_run": "as §1"}, "[17]": {"target": "Neu5Gc(a2-3)Gal(b1-3)GlcNAc", "how_it_was_run": "as §1"}, "[18]": {"target": "Neu5Gc(a2-3)Gal(b1-3)[Fuc(a1-4)]GlcNAc", "how_it_was_run": "as §1"}, "Neu5Gc(a2-3)Gal(b1-4)Glc": {"target": "Neu5Gc(a2-3)Gal(b1-4)Glc", "how_it_was_run": "as §1"}, "[19]": {"target": "Neu5Gc(a2-3)Gal(b1-4)GlcNAc", "how_it_was_run": "as §1"}, "[20]": {"target": "Neu5Gc(a2-3)Gal(b1-4)GlcNAc(b1-3)Gal(b1-4)GlcNAc(b1-2)Man(a1-3)[Neu5Gc(a2-3)Gal(b1-4)GlcNAc(b1-3)Gal(b1-4)GlcNAc(b1-2)Man(a1-6)]Man(b1-4)GlcNAc(b1-4)GlcNAc", "how_it_was_run": "as §1"}, "[21]": {"target": "Neu5Gc(a2-3)Gal(b1-4)[Fuc(a1-3)]GlcNAc", "how_it_was_run": "as §1"}, "[22]": {"target": "Neu5Gc(a2-6)Gal(b1-4)GlcNAc", "how_it_was_run": "as §1"}, "Neu5Gc(a2-6)GalNAc": {"target": "Neu5Gc(a2-6)GalNAc", "how_it_was_run": "as §1"}, "[23]": {"target": "Neu5Gc(a2-8)Neu5Ac(a2-3)Gal(b1-4)GlcNAc", "how_it_was_run": "as §1"}, "[24]": {"target": "Neu5Gc(a2-8)Neu5Gc(a2-3)Gal(b1-4)GlcNAc", "how_it_was_run": "as §1"}, "[25]": {"target": "Neu5Gc(a2-8)Neu5Gc(a2-3)Gal(b1-4)GlcNAc(b1-3)Gal(b1-4)GlcNAc", "how_it_was_run": "as §1"}, "[26]": {"target": "Neu5Gc(a2-8)Neu5Gc(a2-6)Gal(b1-4)GlcNAc", "how_it_was_run": "as §1"}, "[27]": {"target": "Neu5Gc(b2-6)Gal(b1-4)GlcNAc", "how_it_was_run": "as §1"}}, "note": "The list shows a part of the results."}
{"binder": "Clone730PsrP (Streptococcus pneumoniae) (protein) MDHHHHHHHHHHASENLYFQGAMVVGSQTAAATEATAKKVEEDRKKPASDYVASVTNVNLQSYAKRRKRSVDSIEQLLASIKNAAVFSGNTIVNGAPAINASLNIAKSETKVYTGEGVDSVYRVPIYYKLKVTNDGSKLTFTYTVTYVNPKTNDLGNISSMRPGYSIYNSGTSTQTMLTLGSDLGKPSGVKNYITDKNGRQVLSYNTSTMTTQGSGYTWGNGAQMNGFFAKKGYGLTSSWTVPITGTDTSFTFTPYAARTDRIGINYFNGGGKVVESSTT", "values": [{"measurement": "glycan array binding signal (z-score)", "setting": "Neu5Ac(a2-8)Neu5Ac", "result": 0.525}, {"measurement": "glycan array binding signal (z-score)", "setting": "[1]", "result": -0.282}, {"measurement": "glycan array binding signal (z-score)", "setting": "[2]", "result": 1.53}, {"measurement": "glycan array binding signal (z-score)", "setting": "[3]", "result": -0.584}, {"measurement": "glycan array binding signal (z-score)", "setting": "[4]", "result": -0.453}, {"measurement": "glycan array binding signal (z-score)", "setting": "[5]", "result": -0.43}, {"measurement": "glycan array binding signal (z-score)", "setting": "[6]", "result": -0.27}, {"measurement": "glycan array binding signal (z-score)", "setting": "[7]", "result": -0.372}, {"measurement": "glycan array binding signal (z-score)", "setting": "[8]", "result": -0.37}, {"measurement": "glycan array binding signal (z-score)", "setting": "[9]", "result": 0.785}, {"measurement": "glycan array binding signal (z-score)", "setting": "[10]", "result": -0.53}, {"measurement": "glycan array binding signal (z-score)", "setting": "[11]", "result": -0.514}, {"measurement": "glycan array binding signal (z-score)", "setting": "[12]", "result": -0.45}, {"measurement": "glycan array binding signal (z-score)", "setting": "[13]", "result": -0.36}, {"measurement": "glycan array binding signal (z-score)", "setting": "Neu5Ac(b2-6)GalNAc", "result": -0.586}, {"measurement": "glycan array binding signal (z-score)", "setting": "[14]", "result": 0.354}, {"measurement": "glycan array binding signal (z-score)", "setting": "[15]", "result": -0.137}, {"measurement": "glycan array binding signal (z-score)", "setting": "[16]", "result": -0.587}, {"measurement": "glycan array binding signal (z-score)", "setting": "[17]", "result": 0.185}, {"measurement": "glycan array binding signal (z-score)", "setting": "[18]", "result": 0.618}, {"measurement": "glycan array binding signal (z-score)", "setting": "Neu5Gc(a2-3)Gal(b1-4)Glc", "result": 0.613}, {"measurement": "glycan array binding signal (z-score)", "setting": "[19]", "result": -0.208}, {"measurement": "glycan array binding signal (z-score)", "setting": "[20]", "result": -0.301}, {"measurement": "glycan array binding signal (z-score)", "setting": "[21]", "result": 0.189}, {"measurement": "glycan array binding signal (z-score)", "setting": "[22]", "result": 0.758}, {"measurement": "glycan array binding signal (z-score)", "setting": "Neu5Gc(a2-6)GalNAc", "result": 0.158}, {"measurement": "glycan array binding signal (z-score)", "setting": "[23]", "result": -0.605}, {"measurement": "glycan array binding signal (z-score)", "setting": "[24]", "result": -0.641}, {"measurement": "glycan array binding signal (z-score)", "setting": "[25]", "result": -0.565}, {"measurement": "glycan array binding signal (z-score)", "setting": "[26]", "result": -0.41}, {"measurement": "glycan array binding signal (z-score)", "setting": "[27]", "result": 0.052}]}
